Reference: patent US20250136702A1, “HUMAN LIFR ANTIGEN BINDING PROTEIN, PREPARATION METHOD THEREFOR, AND APPLICATION THEREOF” (NONA BIOSCIENCES (SUZHOU) CO., LTD., priority 2020, published 2025)

Key:
human LIFR-ECD = target: T1, human LIFR-ECD (Homo sapiens, UniProt P42702); test: ELISA binding of antibodies to human LIFR-ECD at the protein level
T1 construct: The extracellular region (1-833 a.a.) of recombinant human LIFR protein; His tag; made in house; host or cells: HEK293 (transient transfection, purified from culture supernatant)
T1 sequence (P42702 45-833): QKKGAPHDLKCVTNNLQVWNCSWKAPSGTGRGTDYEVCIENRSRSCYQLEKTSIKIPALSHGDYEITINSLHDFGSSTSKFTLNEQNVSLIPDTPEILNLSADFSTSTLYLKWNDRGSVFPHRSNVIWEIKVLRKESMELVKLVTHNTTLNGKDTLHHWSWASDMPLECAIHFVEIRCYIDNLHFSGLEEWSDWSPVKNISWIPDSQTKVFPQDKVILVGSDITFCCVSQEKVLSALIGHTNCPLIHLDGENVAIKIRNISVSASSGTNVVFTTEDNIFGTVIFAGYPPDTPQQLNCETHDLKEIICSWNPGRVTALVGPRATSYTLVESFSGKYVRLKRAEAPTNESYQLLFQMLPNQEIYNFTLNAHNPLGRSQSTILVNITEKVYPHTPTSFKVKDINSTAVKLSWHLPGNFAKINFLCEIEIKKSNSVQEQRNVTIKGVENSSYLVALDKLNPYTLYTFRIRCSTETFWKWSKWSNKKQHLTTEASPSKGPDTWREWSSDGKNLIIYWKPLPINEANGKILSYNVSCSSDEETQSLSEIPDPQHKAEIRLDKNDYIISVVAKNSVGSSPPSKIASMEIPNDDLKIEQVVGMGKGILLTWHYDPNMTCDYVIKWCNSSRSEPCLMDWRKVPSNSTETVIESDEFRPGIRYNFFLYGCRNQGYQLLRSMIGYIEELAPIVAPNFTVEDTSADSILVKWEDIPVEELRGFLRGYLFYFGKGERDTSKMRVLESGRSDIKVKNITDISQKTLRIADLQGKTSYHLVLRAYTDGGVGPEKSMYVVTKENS
Description: (§1) The binding ability of the 15 antibodies prepared in examples 1-4 of the present invention to the LIFR-ECD protein was detected based on the ELISA assay method. The binding affinity of different antibodies was determined by comparing their dose response binding curves to LIFR-ECD protein. The specific experimental process is as follows: First, human LIFR-ECD, monkey LIFR-ECD and mouse LIFR-ECD proteins are diluted to a concentration of 1 μg/mL, added to a 96-well plate (100 μL per well) and placed at 4° C. overnight. The 96-well plates were washed three times with PBST solution and then placed at 37° C. for 1 h with the addition of 2% BSA in PBS solution. Antibody seris dilution is prepared and (100 nM, 10-fold-dilution), added to a 96-well plate and incubate at 37° C. for 1 h. After washing three times with PBST solution, add anti-human IgG Fc-HRP secondary antibody (for 5000× dilution) and incubate at 37° C. for 30-60 min. After washing three times with PBST solution, add TMB color development solution for 5-15 minutes, and then add termination solution to ternimate the color development.

monkey LIFR-ECD = test: ELISA binding of antibodies to monkey LIFR-ECD at the protein level
Description: as §1

[1] = target: T2, human LIFR/gp130 heterodimer expressed on the surface of 293T cells (Homo sapiens, UniProt P42702); test: Flow cytometry blocking of huLIF binding to HEK293T-huLIFR/gp130 cells; conditions: compared with the negative control hIgG1
T2 construct: expressed in transfected cells; host or cells: HEK293T, lentiviral transduction (lenti-LIFR/gp130), puromycin selection, monoclonal line
T2 sequence (P42702 45-1097): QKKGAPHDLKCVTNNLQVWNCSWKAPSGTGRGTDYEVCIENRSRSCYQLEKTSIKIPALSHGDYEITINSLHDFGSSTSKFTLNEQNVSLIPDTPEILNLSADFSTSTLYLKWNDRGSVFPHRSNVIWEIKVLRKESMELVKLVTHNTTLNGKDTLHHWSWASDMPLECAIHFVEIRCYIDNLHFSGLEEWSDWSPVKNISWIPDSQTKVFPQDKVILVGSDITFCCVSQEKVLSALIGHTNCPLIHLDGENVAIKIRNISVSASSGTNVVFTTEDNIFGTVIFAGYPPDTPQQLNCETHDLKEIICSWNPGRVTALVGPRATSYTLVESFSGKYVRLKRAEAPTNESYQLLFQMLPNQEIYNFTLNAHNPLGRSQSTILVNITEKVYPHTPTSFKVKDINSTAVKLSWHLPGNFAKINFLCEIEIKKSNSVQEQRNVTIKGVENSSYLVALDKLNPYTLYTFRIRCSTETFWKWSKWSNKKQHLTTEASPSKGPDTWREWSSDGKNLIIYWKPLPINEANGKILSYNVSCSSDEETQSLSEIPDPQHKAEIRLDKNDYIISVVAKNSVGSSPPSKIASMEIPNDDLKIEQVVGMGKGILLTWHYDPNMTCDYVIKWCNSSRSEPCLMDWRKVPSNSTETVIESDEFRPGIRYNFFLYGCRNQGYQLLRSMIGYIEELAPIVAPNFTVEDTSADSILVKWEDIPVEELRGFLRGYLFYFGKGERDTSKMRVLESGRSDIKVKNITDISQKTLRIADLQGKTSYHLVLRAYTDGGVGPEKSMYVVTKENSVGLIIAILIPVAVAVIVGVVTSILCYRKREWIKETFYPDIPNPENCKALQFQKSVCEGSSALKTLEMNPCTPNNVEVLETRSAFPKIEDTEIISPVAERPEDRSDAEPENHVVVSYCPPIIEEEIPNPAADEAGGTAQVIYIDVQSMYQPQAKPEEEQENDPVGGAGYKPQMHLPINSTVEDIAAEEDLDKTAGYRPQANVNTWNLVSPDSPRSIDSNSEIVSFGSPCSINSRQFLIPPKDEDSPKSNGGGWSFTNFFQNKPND
Description: The ability of the 15 antibodies prepared in examples 1-4 of the present invention to block the binding of the huLIF protein to the human LIFR/gp130 heterodimer expressed on the surface of 293T cells was tested based on flow cytometry. The blocking ability was determined by comparing the dose response curves of different antibodies blocking the binding of huLIF protein to HEK293T-huLIFR/gp130 cells.
The specific experimental process is: (1) First determine the EC80 concentration of huLIF protein binding to HEK293T-huLIFR/gp130 cells. Label the huLIF protein to obtain the huLIF-biotin protein; (2) make serise diluton of test antibodies and incubate with HEK293T-huLIFR/gp130 cells and huLIF protein (final concentration is the value of EC80) at 4° C. After washing three times with PBS, incubate with APC-labeled Strepavidin secondary antibody for 30 minutes at 4° C. After washing three times with PBS, resuspend the cells with 100 μL FACS buffer; (3) Use flow cytometry to measure the four-channel median fluorescenceDegree value. Use the logarithm of the antibody concentration to base 10 as the abscissa, and plot the four-channel median fluorescence value on the ordinate to compare the IC50 and the peak value of the curve.

B1: PR301177: fully human anti-LIFR IgG1 antibody; VH SEQ ID NO: 53, VL SEQ ID NO: 66, HC SEQ ID NO: 77, LC SEQ ID NO: 90 (antibody)
heavy: QVQLVESGGGVVQPGRSLRLSCVASGFTFSSYGMNWVRQAPGKGLDWVTVIWFDGSNKYYADSVKGRFTISRDNSKNTLYLQMNSLRAEDTAMYYCARGERTLDLWGQGTLVTVSS[here human IgG1 constant region without letters]
light: DIQMTQSPSTLSASVGDRVTITCRASQSISSWLAWYQQKPGKAPKLLIYKASSLESGVPSRFSGSGSGTEFSFTISSLQPDDFATYYCQQYKSFSPGGLTFGGGTKVEIKRTVAAPSVFIFPPSDEQLKSGTASVVCLLNNFYPREAKVQWKVDNALQSGNSQESVTEQDSKDSTYSLSSTLTLSKADYEKHKVYACEVTHQGLSSPVTKSFNRGEC
binding ability to human LIFR-ECD protein (in words) (human LIFR-ECD): have binding ability
binding ability to monkey LIFR-ECD protein (in words) (monkey LIFR-ECD): have binding ability
block huLIF binding to HEK293T-huLIFR/gp130 (in words) [1]: significantly block

B2: PR301195: fully human anti-LIFR IgG1 antibody; VH SEQ ID NO: 54, VL SEQ ID NO: 67, HC SEQ ID NO: 78, LC SEQ ID NO: 91 (antibody)
heavy: QVQLVESGGGVVQPGRSLRLSCAASGFTFSSYGMNWVRQAPGKGLEWVAVIWFDGSIKYYADSVKGRFTISRDNSKNTLYLQMNSLRAEDTAIYYCARGQLVQDFWGRGTLVTVSS[here human IgG1 constant region without letters]
light: DIQMTQSPSTLSASVGDRVTITCRASQSISSWLAWYQQKPGKAPNLLMYKASNLESGVPSRFSGSGSGTEFTLTITSLQPDDFASYYCQQYKSNPLTFGGGTKVEIKRTVAAPSVFIFPPSDEQLKSGTASVVCLLNNFYPREAKVQWKVDNALQSGNSQESVTEQDSKDSTYSLSSTLTLSKADYEKHKVYACEVTHQGLSSPVTKSFNRGEC
binding ability to human LIFR-ECD protein (in words) (human LIFR-ECD): have binding ability
binding ability to monkey LIFR-ECD protein (in words) (monkey LIFR-ECD): have binding ability
block huLIF binding to HEK293T-huLIFR/gp130 (in words) [1]: significantly block

B3: PR301196: fully human anti-LIFR IgG1 antibody; VH SEQ ID NO: 54, VL SEQ ID NO: 68, HC SEQ ID NO: 78, LC SEQ ID NO: 92 (antibody)
heavy: QVQLVESGGGVVQPGRSLRLSCAASGFTFSSYGMNWVRQAPGKGLEWVAVIWFDGSIKYYADSVKGRFTISRDNSKNTLYLQMNSLRAEDTAIYYCARGQLVQDFWGRGTLVTVSS[here human IgG1 constant region without letters]
light: DIQMTQSPSTLSASVGDRVTITCRASQSISSWLAWYQQKPGKAPNLLMYKASNLENGVSSRFSGSGSGTEFTLTITSLQPDDFATYYCQQYKSNPLTFGGGTKVEIKRTVAAPSVFIFPPSDEQLKSGTASVVCLLNNFYPREAKVQWKVDNALQSGNSQESVTEQDSKDSTYSLSSTLTLSKADYEKHKVYACEVTHQGLSSPVTKSFNRGEC
binding ability to human LIFR-ECD protein (in words) (human LIFR-ECD): have binding ability
binding ability to monkey LIFR-ECD protein (in words) (monkey LIFR-ECD): have binding ability
block huLIF binding to HEK293T-huLIFR/gp130 (in words) [1]: significantly block

B4: PR301215: fully human anti-LIFR IgG1 antibody; VH SEQ ID NO: 56, VL SEQ ID NO: 67, HC SEQ ID NO: 80, LC SEQ ID NO: 91 (antibody)
heavy: QVQLVESGGGVVQPGRSLRLSCAASGFTFSSYGMHWVRQAPGKGLEWVAVIWFDGSIKYYADSVKGRFTISRDNSKNTLYLQMNSLRAEDTAIYYCARGQLVQDFWGRGTLVTVSS[here human IgG1 constant region without letters]
light: DIQMTQSPSTLSASVGDRVTITCRASQSISSWLAWYQQKPGKAPNLLMYKASNLESGVPSRFSGSGSGTEFTLTITSLQPDDFASYYCQQYKSNPLTFGGGTKVEIKRTVAAPSVFIFPPSDEQLKSGTASVVCLLNNFYPREAKVQWKVDNALQSGNSQESVTEQDSKDSTYSLSSTLTLSKADYEKHKVYACEVTHQGLSSPVTKSFNRGEC
binding ability to human LIFR-ECD protein (in words) (human LIFR-ECD): have binding ability
binding ability to monkey LIFR-ECD protein (in words) (monkey LIFR-ECD): have binding ability
block huLIF binding to HEK293T-huLIFR/gp130 (in words) [1]: significantly block

B5: PR301218: fully human anti-LIFR IgG1 antibody; VH SEQ ID NO: 57, VL SEQ ID NO: 67, HC SEQ ID NO: 81, LC SEQ ID NO: 91 (antibody)
heavy: QVQLVESGGGVVQPGRSLRLSCAASGFTFSSYGMHWVRQAPGKGLEWVAVIWFDGSVKYYADSVKGRFTISRDNSKNTLYLQMNSLRAEDTAIYYCARGQLVQDFWGRGTLVTVSS[here human IgG1 constant region without letters]
light: DIQMTQSPSTLSASVGDRVTITCRASQSISSWLAWYQQKPGKAPNLLMYKASNLESGVPSRFSGSGSGTEFTLTITSLQPDDFASYYCQQYKSNPLTFGGGTKVEIKRTVAAPSVFIFPPSDEQLKSGTASVVCLLNNFYPREAKVQWKVDNALQSGNSQESVTEQDSKDSTYSLSSTLTLSKADYEKHKVYACEVTHQGLSSPVTKSFNRGEC
binding ability to human LIFR-ECD protein (in words) (human LIFR-ECD): have binding ability
binding ability to monkey LIFR-ECD protein (in words) (monkey LIFR-ECD): have binding ability
block huLIF binding to HEK293T-huLIFR/gp130 (in words) [1]: significantly block
